According to paper PMC3893891 (Journal of biomolecular screening, 2012):
Like-named read-outs stand apart in the source and are kept apart here.

Target: T1, Eya2 ED (Homo sapiens, UniProt O00167)
T1 sequence (O00167 253-538): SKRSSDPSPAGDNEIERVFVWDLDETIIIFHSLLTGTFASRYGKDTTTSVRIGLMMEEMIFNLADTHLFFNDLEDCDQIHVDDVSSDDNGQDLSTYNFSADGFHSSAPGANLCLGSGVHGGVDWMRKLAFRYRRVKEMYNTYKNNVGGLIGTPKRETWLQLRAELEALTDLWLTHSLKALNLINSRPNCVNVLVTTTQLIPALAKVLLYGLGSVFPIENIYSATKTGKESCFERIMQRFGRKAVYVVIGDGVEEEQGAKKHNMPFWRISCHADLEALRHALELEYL
Settings: OMFP substrate; for IC50: read-out: IC50, inhibition of Eya2 ED phosphatase activity

c1cnc2c(c1)ccc1cccnc12 [1,10-phenanthroline]
inhibition of Eya2 ED phosphatase activity (in words): do not show inhibition

O=C(O)CN(CCOCCOCCN(CC(=O)O)CC(=O)O)CC(=O)O [EGTA]
IC50: 65 µM

N[C@@H](Cc1ccccc1)C(=O)O [L-phenylalanine]
inhibition of Eya2 ED phosphatase activity (in words): do not show inhibition

[Na+].[Na+].[Na+].[O]=[V]([O-])([O-])[O-] [Na3VO4]
IC50 (common phosphatase inhibitors): 1800 µM

[F-].[Na+] [NaF]
IC50 (common phosphatase inhibitors): 6600 µM
